Measurements published in the RNAGym collection of RNA variant scans (doi:10.7554/elife.90254).
Read counts are not given, so values of variants with three or more changes are uncertain.

B1: LINE1-mini (parent)
chain: GGCAGAGCUCAACACAGCGUGGCAAAGUGGCUGUGGCUAGACUGCC

Variants of: B1
Test: self-cleavage, relative activity (ratio to wild type); higher = more cleavage; in vitro, sequencing; the parent is a self-cleaving ribozyme

Variant | self-cleavage
G19A G21U A25U U43A | 0.02
C18G G22U C23A | 1.42
C18U A26U G36A | 0.09
C18G G19U G30U | 0.51
G19C G22C G29A G33U | 0.05
G19A G21A G22U C37U A41C | 0.01
G19U A24U G35U U38A | 0.27
G19A U20A G30A A39G C42A | 0.02
C18A G36C C37A | 0.03
G19A U43A C46A | 0.45
C18G G21A U34A | 0.01
C18U U38A A39C | 1.35
C18U A24G U28C C42A | 0.1
G19C C42U U43A | 0.13
G19U A24C U43A | 0.02
G19U G30A C31G G36U | 0.07
G19A A25C G40C C42A C46A | 0.1
G19U G27A G30C G33A G36A | 0.02
G19A G33A G36U | 0.16
C18U C23U G40U C46U | 0.04
C18U G33U G44C | 0.04

Variant | self-cleavage
C18G A25C U34A C37A | 0.02
U20A C31A A39U | 0.11
G19U U38G C42G | 0
G19U G27U C31A U38C | 0.07
G19U G30A A41C | 0.07
C18U A25G C31G | 0.02
G19U U28A C46A | 0.82
C18G C37A A39C | 0.25
C18U C23G U28A | 1.4
G19A G21C G22C A25C | 0.08
C18U G44A C45G | 0.35
G19U C37A A41G | 0.02
C18U C37U A39U | 0.03
C18U U32A C37U C42U | 0.03
G19U U20C C31A | 0.03
C18G G19C G21U A26C G30C C46U | 0.18
C18G G19C U34A | 0.1
G19U C23A C37U A39U | 0.03
G19U G22U C37U | 0.02
G19U G21U G33A | 0.09
C18A G36U U38A | 0.06

Variant | self-cleavage
C18G C37A C45A C46G | 0.02
C18A U32G C37G | 0.04
C18U C23A C31U | 0.03
C18U C42A C46U | 0.09
C18U G30A G36U | 0.07
G19U G35A G36U | 0.31
U20A C23U G36C | 0.02
G19U G30U A39U | 0.54
C18G G22U U34G C42G | 0.02
G19C G44C C46U | 0.1
G19A U20A C23A | 1.53
C18U G22A G30U C31U G44U | 0.01
G19U U28A G33A G35U U43A C46G | 0.02
G19A G33U U38G | 0.05
C18U G22A A25U U34A U38C | 0.04
C18U C31A U38A G40C C45U | 0
G19A C23U G35C A39G | 0.06
U20A A26U U32A | 0.09
G19A U38C G40C C46A | 0.02
G19A U28C C46A | 0.39
C18A G22U C23A A26U | 0.97

Variant | self-cleavage
C18U G19C A25U C42G G44C C45A | 0
C18A G33C U34A | 0.02
C18U G27U G40A | 0.04
G19A A25G C31A G33A | 0.04
C18U A26U C42U | 0.09
C18G C31U G36C C42A | 0.01
C18G G22C G35U | 0.04
U20A A24G G30A C37A G44A | 0.06
G19U C31A G40U C42U | 0.02
C18U U34C G35A U38C | 0.03
G19A G36U C42A | 0.07
G19U G30A G44C | 0.31
C18A U28C G30U | 0.53
G19A G27U U32G G36U | 0.06
G19A C23U G27U G44C | 0.22
C18G C23G U32C | 0.01
G19C G21U C46U | 0.26
C18A U20A U28A C31G | 0.07
G19A G21A U32A C46A | 0.59
C18G G22U G44A | 0.08
